Our source for the binding signal values is paper PMC10668032.

This is one part of the list. At the low end of the ranking the order means little.

In this test the target is SIX1 homeodomain (reference allele) (UniProt Q15475). Description: universal protein binding microarray. To be noted: Universal all-10-mer PBM (8x60K, AMADID 030236), 300 nM GST-tagged protein, Alexa Fluor 488 anti-GST; buffer, salt, pH and temperature not stated; high values mean tight binding; most listed sequences are background and not binding sites; double strand, one strand shown.
Regarding CGCTGGGA, the binding signal is 0.128 E-score.
For GATAAAAA, the binding signal amounted to 0.0457 E-score.
For GAACCTCC, the binding signal was -0.181 E-score.
For TACCGGCA, the binding signal stood at 0.107 E-score.
Regarding CCACGCTA, the binding signal was -0.116 E-score.
For CGTTTCTA, the binding signal is -0.176 E-score.
As to GGGCGTAC, the binding signal stood at 0.0111 E-score.
As for CAAACGGA, the binding signal is 0.0186 E-score.
The result for AATGTGAC reads -0.161 E-score.
On to CGGGAGTA, for which the binding signal turned out to be 0.168 E-score.
The result for TGACATAA reads -0.223 E-score.
As for ATCTGCAG, the binding signal worked out at 0.115 E-score.
In the case of GAGGTCCA, the binding signal is -0.381 E-score.
CTCATTAA: the binding signal is -0.193 E-score.
As to ATGCTTAC, the binding signal was -0.122 E-score.
With ACGAAGAC, the binding signal was -0.0839 E-score.
The result for AATATGCT reads 0.0268 E-score.
Regarding ATGAGGGA, the binding signal is 0.0535 E-score.
As for CGCGAAAA, the binding signal is -0.0913 E-score.
The result for CTCATTTA reads 0.0702 E-score; that for CAACGTTA, -0.155 E-score.
ACGTCTTG: the binding signal is -0.0644 E-score.
The result for ACCCGTAG reads 0.156 E-score; that for ATAAGTAT, 0.235 E-score; that for CCGCAGCG, -0.232 E-score.
To CTATTGAC belongs 0.0408 E-score; to CTATTAGA, 0.00514 E-score.
Consider CGGTGTTC, for which the binding signal was determined as 0.288 E-score.
Turning to CCGCGGCA, the binding signal is -0.12 E-score.
Turning to ACTACGCG, the binding signal was -0.0274 E-score.
The result for CCAGAGGG reads -0.0315 E-score; that for AGACCTCC, -0.0347 E-score.
As to CAGCTCCG, the binding signal was -0.0916 E-score.
As for CCGGTGTA, the binding signal amounted to 0.332 E-score.
As to CCGCCAGG, the binding signal is -0.132 E-score.
For AGGGCATG, the binding signal was -0.0393 E-score.
CGACCTTC: the binding signal is -0.266 E-score.
For CGGATTAC, the binding signal was determined as 0.299 E-score.
CCGAGTAG: the binding signal turned out to be 0.116 E-score.
For the sequence CTTAGTGA, the binding signal is -0.0285 E-score.
Take CAAAGCGG: the binding signal was -0.189 E-score.
For TGGAATAA, the binding signal is -0.12 E-score.
With CCCTCCCG, the binding signal was 0.0771 E-score.
Consider ACTTAACT, for which the binding signal was -0.111 E-score.
In the case of ACTTACGC, the binding signal is -0.065 E-score.
The result for GTTAATAA reads -0.047 E-score.
As for CTGTATGC, the binding signal is -0.238 E-score.
For AGTGAGTC, the binding signal is -0.154 E-score.
In the case of ACGGCATA, the binding signal was 0.0123 E-score.
On to AAGCCATA, for which the binding signal is -0.0859 E-score.
With CAGGACAA, the binding signal is -0.109 E-score.
Regarding CTAACGGA, the binding signal was -0.0614 E-score.
The result for CACTTCGA reads -0.149 E-score; that for CTTCAGCA, -0.358 E-score; that for ACCAAACC, -0.0343 E-score.
Consider CTCTTATC, for which the binding signal came to 0.0649 E-score.
The result for AACTACCG reads -0.169 E-score.
The result for CGGTTGTA reads -0.102 E-score.
To AGCCGAAA belongs -0.164 E-score; to AGACCTCT, -0.081 E-score.
With ATAGGAAA, the binding signal is 0.0622 E-score.
To GAATCAGA belongs -0.0145 E-score.
As for GCGTAACA, the binding signal is -0.0581 E-score.
ACTTTGTA: the binding signal was -0.104 E-score.
Regarding GCGTCTCA, the binding signal stood at 0.209 E-score.
For the sequence CAAAACTA, the binding signal was -0.0568 E-score.
Regarding GCATTTGA, the binding signal was -0.0383 E-score.
With CCGAATAG, the binding signal is 0.0699 E-score.
To AAGATCAT belongs 0.273 E-score; to CACGTTGC, -0.255 E-score; to CTGCTATC, 0.292 E-score.
For CTTCTCAC, the binding signal worked out at 0.307 E-score.
To AAAATTGA belongs -0.208 E-score; to CCGATCCA, 0.29 E-score.
On to CCAATAAC, for which the binding signal turned out to be 0.0326 E-score.
ACACTGTA: the binding signal worked out at 0.123 E-score.
To CTCTCTCA belongs -0.0574 E-score; to GTCATAAA, -0.0997 E-score; to AATTGCCC, 0.0725 E-score.
As to AACCAGTA, the binding signal stood at 0.0066 E-score.
The result for CTCTGGAA reads -0.161 E-score; that for AGCTGGCG, -0.252 E-score.
For the sequence GCAACTAA, the binding signal was -0.0314 E-score.
With ACAATGTC, the binding signal is -0.0373 E-score.
Take ATGAATTC: the binding signal is -0.00523 E-score.
For GGACTACC, the binding signal is -0.0239 E-score.
The result for AGAATAAC reads -0.191 E-score.
Regarding GAGTAGGA, the binding signal turned out to be 0.112 E-score.
In the case of CAGAGTAA, the binding signal is -0.165 E-score.
In the case of ATGCTAGA, the binding signal was -0.0205 E-score.
In the case of CATGTTAA, the binding signal is -0.146 E-score.
Take CGTATCCC: the binding signal came out at 0.389 E-score.
For ATGTCCGC, the binding signal is -0.169 E-score.
AAGGGCAG: the binding signal is -0.12 E-score.
As for CAGTTGAA, the binding signal was -0.146 E-score.
To GCTCGTCA belongs -0.169 E-score.
As for ACCGGAAG, the binding signal is -0.126 E-score.
Turning to ACGTTACG, the binding signal was -0.216 E-score.
In the case of CCAGATGC, the binding signal was 0.00855 E-score.
To GGCCTGCA belongs -0.224 E-score.
In the case of ACGAAGTG, the binding signal was -0.178 E-score.
With GCGCGTGA, the binding signal was -0.00937 E-score.
The result for CAGATGGG reads 0.042 E-score; that for ACCCCGAT, 0.356 E-score; that for ATGGGCTA, 0.00035 E-score.
For TCATATCA, the binding signal was found to be 0.418 E-score.
As for AAATCATT, the binding signal is -0.287 E-score.
Regarding ATATCCTG, the binding signal turned out to be 0.394 E-score.
In the case of AGAGCTAA, the binding signal is -0.252 E-score.
Consider AGGACATC, for which the binding signal was -0.126 E-score.
